PubChem BioAssay AID2546 (National Center for Advancing Translational Sciences (NCATS), 2010)
The campaign covered roughly 310,000 compounds. About 11,000 (3.5%) were called active. Inconclusive results, whose numbers are uncertain, are shown with a selection of clear calls. The call rests on the fitted dose curve; in most records, active means well fitted inhibition curve with a large enough effect; inconclusive means small, poorly fitted or top-dose-only effect, or effect the other way; inactive means flat fitted curve, though single readings scatter. No potency is given beside an inconclusive call; the fits are too rough.

Test: VP16 counterscreen qHTS for inhibitors of ROR gamma transcriptional activity;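 further: Gal4-VP16 expression switched on by copper sulfate through the metallothionein promoter; nearly all actives have a fitted effect of over 50% in size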
Settings: Drosophila S2 Gal4-VP16 UAS-luciferase, luminescence, 20 h; activity, negative = inhibition: at 53.6 µM (top of the series)
On the % scale 0 is the no-effect control and ±100 the full control effect; potency means the concentration at half of the fitted maximal effect; tags describe the fitted curve by direction and shape.

Q: For COc1cccc(/C=N/n2cnc3ccccc32)c1OC, which Potency is on record?
A: inconclusive [inhibitor, full curve]

Q: With NNc1ncnc2scc(-c3ccc(Cl)cc3)c12 as the compound, how does the Potency read?
A: inconclusive [inhibitor, single point]

Q: With S=c1nn[nH]n1C12CC3CC(CC(C3)C1)C2 as the compound, how does the Potency read?
A: active: 7.08 µM

Q: Which Potency does the source give for O=C(/C=C/c1cccc(O)c1)c1cccnc1 here?
A: inconclusive [inhibitor, single point]

Q: With COc1cc(C(Nc2ccccn2)c2ccc3ccc(C)nc3c2O)cc(OC)c1O (stereo unspecified) as the compound, how does the Potency read?
A: active: 12.6 µM

Q: With CN1CCc2c1nc1ccccc1c2N=C1CCCN1Cc1ccccc1 as the compound, how does the “activity, negative = inhibition” value read?
A: inactive: 1.26%

Q: With CCOC(=O)c1sc(NC(=O)c2ccc(C)s2)cc1C as the compound, how does the Potency read?
A: inconclusive [inhibitor, partial curve, poor fit]

Q: Which “activity, negative = inhibition” value does the source give for CCc1ccc(NC(=O)C/C(C)=N/NC(=O)COc2ccc(C)cc2Br)cc1 here?
A: inactive: -6.71%

Q: Which Potency does the source give for Cc1ccc(SC(c2ccc(C)cc2)C(Cn2cncn2)C(=O)c2ccccc2)cc1 (stereo unspecified) here?
A: inconclusive [inhibitor, single point]

Q: For CC1CC(C)(C)NC(=S)N1CC(=O)NCc1ccc(Cl)cc1 (stereo unspecified), which Potency is on record?
A: inconclusive [inhibitor, single point]

Q: With O=C1ON=C(c2ccccc2)/C1=C/c1ccc(O)c(O)c1 as the compound, how does the Potency read?
A: inconclusive [inhibitor, single point]

Q: For CCN1C(=O)CC(N2CCN(c3ccc(C(=O)c4ccncc4)cc3)CC2)C1=O (stereo unspecified), which Potency is on record?
A: inconclusive [inhibitor, single point]

Q: For CCOc1cc(C(=O)Nc2cccc(OCC(=O)N3CCOCC3)c2)cc(OCC)c1OCC, which “activity, negative = inhibition” value is on record?
A: inactive: 2.13%

Q: Which “activity, negative = inhibition” value does the source give for c1ccc(CN2CCC(Nc3nc(-c4ccccc4)nc4ccccc34)CC2)cc1 here?
A: inactive: -3.29%

Q: With CCCCN1C2=C(C(=O)CC(C)(C)C2)C(c2ccccc2)C2=C1c1ccccc1C2=O (stereo unspecified) as the compound, how does the “activity, negative = inhibition” value read?
A: inactive: -4.8%

Q: Which “activity, negative = inhibition” value does the source give for COCCn1c(SCc2cccc([N+](=O)[O-])c2)nc2ccccc2c1=O here?
A: inactive: -0.384%

Q: With Cc1ccc(S(=O)(=O)c2ccc(Cl)cc2)cc1S(N)(=O)=O as the compound, how does the “activity, negative = inhibition” value read?
A: inactive: -7.88%

Q: With O=C(Nc1ccc(Br)cc1)c1cccc(S(=O)(=O)Nc2ccc(Br)cc2)c1 as the compound, how does the Potency read?
A: active: 7.94 µM

Q: With Cc1ccc(-c2ccc(OCC(=O)N3CCOCC3)cc2)cc1 as the compound, how does the Potency read?
A: inconclusive [inhibitor, single point]

Q: With COc1cccc(Cn2cnc3c(NS(=O)(=O)c4cccc(Cl)c4Cl)c(C)c(C)cc32)c1 as the compound, how does the Potency read?
A: inconclusive [inhibitor, single point]

Q: For Cc1ccsc1/C=N\NC(=O)Cn1nnc2ccccc21, which Potency is on record?
A: inconclusive [inhibitor, single point]

Q: For COc1ccc(/C=N/Nc2ncccc2[N+](=O)[O-])c(OC)c1, which Potency is on record?
A: inconclusive [activator, full curve]

Q: For Cc1ccc(/C=N/Nc2ccc(F)cc2)s1, which “activity, negative = inhibition” value is on record?
A: inactive: -5.95%

Q: Which Potency does the source give for C#CCN1C(=O)C(O)(CC(=O)/C=C/c2ccco2)c2ccccc21 (stereo unspecified) here?
A: inconclusive [activator, partial curve]

Q: With O=C(Nc1cccc2ncccc12)c1ccc2c(c1)OCCO2 as the compound, how does the “activity, negative = inhibition” value read?
A: inactive: 5.2%

Q: With COc1ccccc1CNC(=S)NCc1ccc(Cl)cc1 as the compound, how does the Potency read?
A: active: 7.08 µM

Q: For CCn1cc(CN2CCC(n3nccc3NC(=O)CCc3ccccc3)CC2)cn1, which “activity, negative = inhibition” value is on record?
A: inactive: -22.1%

Q: Which Potency does the source give for COc1ccc(-c2noc(CCCC(=O)Nc3ccc(C(N)=O)cc3)n2)cc1 here?
A: active: 2.51 µM

Q: With Cc1ccc(CNC(=O)Cn2c(=O)c3sccc3n(Cc3ccc([N+](=O)[O-])cc3)c2=O)cc1 as the compound, how does the Potency read?
A: inconclusive [inhibitor, single point]

Q: With Cc1ccc(Cc2c(C)nc3nc(SCC(=O)NCCCN4CCCCCC4)nn3c2C)cc1 as the compound, how does the “activity, negative = inhibition” value read?
A: inactive: 1.59%

Q: Which Potency does the source give for CCNC(=S)N(Cc1ccccc1)Cc1nc2ccccc2c(=O)[nH]1 here?
A: active: 7.08 µM

Q: With COc1ccc(-c2noc(=O)n2CC(=O)N2CCC(Cc3ccccc3)CC2)cc1 as the compound, how does the Potency read?
A: inconclusive [inhibitor, single point]

Q: For CC(C)(O)C#Cc1ccc(CN2CCCC(CNC(=O)c3ccco3)C2)cc1 (stereo unspecified), which “activity, negative = inhibition” value is on record?
A: inactive: -11.8%

Q: Which Potency does the source give for CCOC(=O)c1ccc(S(=O)(=O)Nc2ccc3cn[nH]c3c2)cc1 here?
A: inconclusive [inhibitor, single point]

Q: Which “activity, negative = inhibition” value does the source give for COc1cc(/C=C/C(=O)OCC(=O)NC(=O)NC(C)C)cc(S(=O)(=O)N2CCc3ccccc32)c1OC here?
A: inactive: 2.61%

Q: For CCOC(=O)N1CCN(C(=O)c2cc3c(s2)-c2ccccc2OC3)CC1, which Potency is on record?
A: inconclusive [inhibitor, single point]

Q: Which Potency does the source give for CC1CCc2c(sc3ncn(N)c(=N)c23)C1 (stereo unspecified) here?
A: inconclusive [inhibitor, single point]

Q: For Cc1cc(-n2c(C)cc(C(=O)COc3ccc4ccc(=O)oc4c3)c2C)no1, which “activity, negative = inhibition” value is on record?
A: inactive: 2.86%

Q: For O=C(NCC1CCCO1)c1cc2ccccc2[nH]1 (stereo unspecified), which “activity, negative = inhibition” value is on record?
A: inactive: 13.9%

Q: For CCCCOC(=O)CSC1=C(C#N)C(c2ccc3c(c2)OCO3)CC(=O)N1 (stereo unspecified), which Potency is on record?
A: inconclusive [inhibitor, full curve, poor fit]

Q: Which Potency does the source give for CCn1nc(C(=O)Nc2ccc(S(=O)(=O)Nc3ncccn3)cc2)c2ccccc2c1=O here?
A: inconclusive [activator, full curve, poor fit]

Q: For CC(C)(C)c1cc(NC(=O)c2ccco2)no1, which Potency is on record?
A: inconclusive [inhibitor, single point]

Q: For COc1ccc(-c2nc3ccccc3n2CCC(C)C)cc1OC, which Potency is on record?
A: inconclusive [inhibitor, single point]

Q: Which Potency does the source give for CCNC(=O)NC(=O)COC(=O)CCCSc1nc2ccccc2s1 here?
A: active: 7.94 µM

Q: For Brc1ccc(CSc2nnc(-c3ccccn3)n2Cc2ccco2)cc1, which Potency is on record?
A: inconclusive [inhibitor, single point]

Q: With C/C(=N\NC(=O)CNC(=O)c1cccs1)c1ccc(Cl)c(Cl)c1 as the compound, how does the “activity, negative = inhibition” value read?
A: inactive: -0.0297%

Q: Which Potency does the source give for Cn1cc(C=O)c(-c2ccc3c(c2)OCCCO3)n1 here?
A: inconclusive [activator, single point]

Q: Which Potency does the source give for COc1cc(/C=C/c2ccc(O)cc2)cc(OC)c1 here?
A: inconclusive [inhibitor, single point]

Q: With CC/C(=N/O)c1cnnc(SC)n1 as the compound, how does the “activity, negative = inhibition” value read?
A: inactive: -0.147%

Q: Which Potency does the source give for Cc1ccnc(NC(=O)/C=C/c2cccs2)c1 here?
A: active: 12.6 µM

Q: Which Potency does the source give for O=C(c1ccc(Br)s1)N1CCN(C/C=C/c2ccccc2)CC1 here?
A: inconclusive [inhibitor, single point]

Q: For COc1ccc(N(CC(=O)Nc2ccc(S(=O)(=O)N3CCCC3)cc2)S(C)(=O)=O)cc1OC, which Potency is on record?
A: inconclusive [activator, single point]

Q: Which Potency does the source give for O=C(CN(Cc1ccccc1)S(=O)(=O)c1ccccc1)N/N=C/c1ccc([N+](=O)[O-])cc1 here?
A: inconclusive [activator, single point]

Q: For NCCCNc1nc(N)c([N+](=O)[O-])c(NC2CCCCC2)n1, which Potency is on record?
A: inconclusive [inhibitor, single point]

Q: For CSc1ccc(/C=N/n2c(COc3ccccc3)n[nH]c2=S)cc1, which Potency is on record?
A: inconclusive [inhibitor, partial curve]

Q: For COc1cc2c(cc1OC)-c1n[nH]c(=S)n1C(C)(C)C2, which Potency is on record?
A: inconclusive [inhibitor, single point]

Q: Which “activity, negative = inhibition” value does the source give for CCOC(=O)C1(CCOC)CCN(C(=O)Cc2ccc3ccccc3c2)CC1 here?
A: inactive: -9.9%

Q: For COc1ccc(Cl)cc1N1C(=O)C2CCCN2C1c1ccc(F)cc1 (stereo unspecified), which “activity, negative = inhibition” value is on record?
A: inactive: -3.51%

Q: Which Potency does the source give for COc1ccc(NC(=O)CC2C(=O)N(c3ccc(Cl)cc3)C(=S)N2NC(=O)c2cccc(F)c2)cc1 (stereo unspecified) here?
A: active: 17.8 µM

Q: Which Potency does the source give for Oc1ccc(N=Nc2nc(-c3ccccc3)c(-c3ccccc3)[nH]2)cc1 here?
A: inconclusive [inhibitor, single point]

Q: Which Potency does the source give for Cc1cc(C)cc(NC(=O)c2cc(S(=O)(=O)N3CCCC3)cn2C)c1 here?
A: inconclusive [inhibitor, single point]

Q: With O=C(N/N=C/c1ccc(Br)s1)c1cccc([N+](=O)[O-])c1 as the compound, how does the Potency read?
A: active: 1 µM

Q: Which Potency does the source give for CC(=O)c1cccc(-n2c(CCC(=O)O)ccc2-c2cccs2)c1 here?
A: inconclusive [inhibitor, single point]

Q: With Cc1ccccc1OCC(=O)NC(=S)Nc1ccc(N2CCOCC2)c(Cl)c1 as the compound, how does the Potency read?
A: inconclusive [inhibitor, single point]

Q: With CCn1c(/C=C/c2c(C)n(CC)c3ccccc23)nc2ccccc2c1=O as the compound, how does the “activity, negative = inhibition” value read?
A: inactive: -1.46%

Q: Which “activity, negative = inhibition” value does the source give for C#CCOC(=O)Nc1cccn(Cc2c(Cl)cccc2Cl)c1=O here?
A: inactive: -5.89%

Q: Which Potency does the source give for Cc1nc(CC(=O)c2c(C)cc(O)cc2O)cs1 here?
A: inconclusive [inhibitor, single point]

Q: Which “activity, negative = inhibition” value does the source give for CCOC(=O)c1[nH]c2ccc(OCC)cc2c1NC(=O)CN1CCN(c2ccccn2)CC1 here?
A: inactive: -22%

Q: With CC(C)CCN1NC2(CCC(C)CC2)NC1=S (stereo unspecified) as the compound, how does the Potency read?
A: inconclusive [inhibitor, single point]

Q: With CC(NC(=O)/C(C#N)=C/c1ccc(N2CCOCC2)cc1)c1ccccc1 (stereo unspecified) as the compound, how does the Potency read?
A: inconclusive [inhibitor, single point]

Q: Which “activity, negative = inhibition” value does the source give for O=C(O)c1cc(N=Nc2ccc([N+](=O)[O-])cc2)ccc1O here?
A: inactive: -10.9%

Q: For Cc1nc(CS(=O)(=O)c2ccccc2)cc(Sc2ccccc2Cl)n1, which Potency is on record?
A: inconclusive [activator, single point]

Q: Which “activity, negative = inhibition” value does the source give for O=C(Cn1c(=S)[nH]c2ccccc2c1=O)N1CCc2ccccc2C1 here?
A: inactive: 9.47%

Q: For COC(=O)c1ccc2c(=O)n(-c3ccccc3)c(=S)[nH]c2c1, which Potency is on record?
A: inconclusive [inhibitor, single point]

Q: Which “activity, negative = inhibition” value does the source give for CCN(c1ccc(OC)cc1)S(=O)(=O)c1cc(-c2cc(C)no2)ccc1OC here?
A: inactive: 1.82%

Q: Which Potency does the source give for Cc1ccn2cc(-c3ccc(Br)cc3)nc2c1 here?
A: inconclusive [inhibitor, partial curve, poor fit]
